# Data published in the supplement of paper PMC11417369.
# ± gives the standard deviation of the averaged measurements. This is one part of the list.
# Test system: PfAP2-LT AP2 domain (GST-tagged)
# Assay: gcPBM binding intensity (ln(normalized median fluorescence intensity)); higher = stronger DNA binding
# Summary of the method: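 Each value is the highest Masliner-normalised natural-log median intensity across replicate spots of either orientation of a probe. The probes were primer-extended double-stranded 36-bp intergenic genomic sequences on an Agilent 4 × 180k array, alongside negative controls, exposed for 1 h to GST-tagged P. falciparum DNA-binding domains expressed in E. coli. Bound protein was picked up with Alexa488 anti-GST antibody and scanned at 488 nm.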
row,Sequence,gcPBM binding intensity (ln)
1,ATGAGTGTAATAATATGTACATAACCTACATAATTT [XGTACX_site852],8.94 ± 0.45
2,CACGCACAGATATATACACACTTTTATTTAAATAAC [CACACA_site6852],9.01 ± 0.4
3,GGATGCACACAAAAGGGTACATAAGAAAAAAACAGG [XGTACX_site8570],9.21 ± 0.57
4,AAAAATAAAATGGACACACACGTTCAAATTTAGATT [CACACA_site5186],9.19 ± 0.35
5,TTCACTAATAAATACGCACACATATACAGATATATA [CACACA_site4887],9.04 ± 0.27
6,AAATATATATATAGTTGTACATATATCGTATATATT [XGTACX_site7867],8.94 ± 0.29
7,ATTCTACACAGACATACACACATATATATATATATA [CACACA_site5826],9.835 ± 0.078
8,AAAAAAAATTATTATGAACACACATTTATTATATTC [CACACA_site8443],8.66 ± 0.46
9,TAATATGATCTTAATAGTACTTTATTAATAATAACC [XGTACX_site1953],8.45 ± 0.44
10,TATATATGTTTATGTAGTACTATATATCCCTTTCTT [XGTACX_site7049],8.93 ± 0.57
11,TATTGATTATTTGAATGTACTTATTATATTAAATAT [XGTACX_site1304],8.48 ± 0.61
12,GCACACATATAATAATGTACATATATATATTTAAAA [XGTACX_site4561],9.13 ± 0.45
13,ACACGCACATATATATAAATATATATATATATAAAT [CACACA_negctrl_site1781],9.6 ± 0.28
14,AATAAAAATATTTTTACATGCAAATGTTATATATTT [TGCATGCA_site1056],8.61 ± 0.46
15,TTTAAGCAAAAACACACACACATATATATATATATA [CACACA_site349],10.1 ± 0.16
16,TATAAATATATATACACACACATATATATTATATAT [CACACA_site596],9.27 ± 0.21
17,AAAAAATGATAATATACACACTTATGGGAGAGCGCA [CACACA_site5398],9.03 ± 0.42
18,ATTATGTTTCTTTTTTTTTTTAAAGGATGTCTTTTT [CACACA_negctrl_site974],8.62 ± 0.56
19,AATATTAAACAAAATAAATATATAAAAAATAAATAA [GTGCAC_negctrl_site93],8.62 ± 0.45
20,AAGTTATATTTGTGTACACATAATTTTATACTAATA [CACACA_site5553],8.83 ± 0.38
21,TATTTAATACGGACTCATAAATCTTAATAAAAAAAA [CACACA_negctrl_site434],8.44 ± 0.3
22,TGATAATAAGCATACACACACACACTAGAAAAAAAA [CACACA_site4558],10.1 ± 0.38

row,Sequence,gcPBM binding intensity (ln)
1,TGTTCTTTATTTTATTGTACTTTTAAAATTCCTTTA [XGTACX_site8058],8.63 ± 0.56
2,TTATTTATAAACATATGTACTAATACATGATTAACA [XGTACX_site7645],8.47 ± 0.45
3,GACATATATATAAAATGTACATATATATTTACATAT [XGTACX_site7822],8.91 ± 0.45
4,TATAAAAAAAACGAAAAAAAAAAAAAAAATACAGGA [TGCATGCA_negctrl_site585],8.76 ± 0.58
5,AAAAAAAAAAGACATGCATACGCTAATTTTTAGTTG [TGCATGCA_site300],8.54 ± 0.49
6,TATTATAATAAGAAGTGTACGTGTTTTTATAAATAA [XGTACX_site575],8.54 ± 0.39
7,GTTCCATGAGTATATACATGCATATATCTAGTTTAT [TGCATGCA_site388],9.05 ± 0.44
8,CATTTTTACAACGTTGCACACTTCAAAAGGTTTACA [CACACA_site2760],8.93 ± 0.38
9,TGTTTATACAATATTTGTACATATATTTTTATTTTT [XGTACX_site4104],8.85 ± 0.42
10,TTTTAAATAAAAAAATTAAATTAAAATATATAAAAA [XGTACX_negctrl_site490],7.97 ± 0.48
11,TATAAAAAAAAAAAAAGTACTTAAATATAAATAAAT [XGTACX_site5052],8.62 ± 0.47
12,GATACTCTCTTTTAATGTACAAAATTTTAAAAATTA [XGTACX_site1781],8.27 ± 0.44
13,AATTTATGTTTTAAAAGTACTTTTCTAATTTATAAA [XGTACX_site1593],8.56 ± 0.61
14,TATGTACAGACATATACACACCTCTATAATCTATAT [CACACA_site6482],9.03 ± 0.42
15,CTAAAGTAAATTTAAGCACACACAACGAATTTTTAT [CACACA_site8599],9.16 ± 0.24
16,AATGATATATTATAAACACACAAAGATGAATATATA [CACACA_site2818],9.01 ± 0.45
17,AATTAAAAAAAATACACACACACATACCCATATATA [CACACA_site5767],9.85 ± 0.28
18,TACCCTCGTATATATATACACACTAAAATACAGACA [CACACA_site4154],8.97 ± 0.3
19,ATTCATTCATATGTTACACACACACCCACCCATAAA [CACACA_site9066],9.71 ± 0.23
20,TTTATCGAATATAATAGTACATAAAAAAAAAAAAAA [XGTACX_site1734],8.49 ± 0.35
21,AGATTATATAAAAAAGTGCATATTTTCATTTTTTTT [GTGCAC_site9448],8.39 ± 0.47
22,CATTAAAATGGTAAATGTACATATCCATCTTCTCAC [XGTACX_site4636],8.89 ± 0.35

row,Sequence,gcPBM binding intensity (ln)
1,TCCCTTTGTATATATATATAAATATATATATATATA [CACACA_negctrl_site157],9.11 ± 0.25
2,TTATGAAGCAGACATGCATGTTATGGCTTAAATAAT [TGCATGCA_site492],8.97 ± 0.45
3,ACATTTTTTTTGTGAGTCTTTGCGGCATCAAAATTT [XGTACX_negctrl_site348],8.7 ± 0.36
4,AAAAAAGAAAAAAACTGTACATGATAAATATTTATT [XGTACX_site7270],8.79 ± 0.52
5,ATTATATTCCAAGTTTGTACATATATATAAAAGTAT [XGTACX_site1631],8.72 ± 0.34
6,GTAAAAGTTAAAAAAACATGCAAAATTTAAAAAAAA [TGCATGCA_site637],8.71 ± 0.54
7,ATACATATATATATTCTACACACTTATAATATAATA [CACACA_site8782],8.78 ± 0.45
8,ACTATATTTGCCCTTTTAATCAGAACAAAAAAAAAA [CACACA_negctrl_site1051],8.31 ± 0.41
9,AAAAAAAAAAAATCATGTACTTATTTTTCATTGTTG [XGTACX_site1542],8.63 ± 0.46
10,AAATAAGCATATACAAACATGCATACATATAAATAA [CACACA_negctrl_site246],8.96 ± 0.45
11,CTTATATTAAAAACTTGTACACATGTTAAGAATTTT [XGTACX_site5857],8.51 ± 0.4
12,TTTATATATTATACATGTACATATTTATTTATATAA [XGTACX_site3474],8.79 ± 0.4
13,TATATGCACTTAATATGTACACAAAAAAAAAAAAAA [XGTACX_site6199],8.6 ± 0.44
14,AGTATAAAAATAAGCACACACACAAATATATATTTA [CACACA_site923],9.77 ± 0.16
15,TTTCTTCTGCATTATGCACACTATAATTCGTTAAAA [CACACA_site5568],9.05 ± 0.31
16,TTTTCTTTTACAAAGGGTACATAATTTAAATTCATA [XGTACX_site3876],8.43 ± 0.36
17,ATAATATAAATATTAACACACATCCTTTTATGTATA [CACACA_site6685],8.88 ± 0.45
18,TTACAAAACACTTATACACACATATAAATATAAATA [CACACA_site7307],8.93 ± 0.42
19,CTCCTCATATAATTTTGTACATAAAAAATTACCATT [XGTACX_site3879],8.65 ± 0.33
20,TATTTTATAATTTACCGTACATTAATTGTATTATTA [XGTACX_site5722],8.8 ± 0.41
21,ATATATTTTATATGTGTGCACTATATATATATATAT,9.41 ± 0.13
22,TCTTATTTTATAAATATAAATATATATATATATATA [GTGCAC_negctrl_site479],8.65 ± 0.18

row,Sequence,gcPBM binding intensity (ln)
1,ATTAATATATAACGTGCACACACACCGTTACGTATG [CACACA_site8543],9.59 ± 0.35
2,TGTTATATATATTGACTTAATAAATAAATAAATATA [GTGCAC_negctrl_site590],8.28 ± 0.36
3,ATATATTTTAAAGAAAGTACCCACCGTTTGAAGTCA [XGTACX_site2273],8.66 ± 0.35
4,TAAAAGAAATAAGGTGCACACATATACATATATATA [CACACA_site8037],9.26 ± 0.45
5,TTTCTAAATGTTTATATATATATATATATATAAATA [GTGCAC_negctrl_site397],8.72 ± 0.26
6,CTATAAATAACAGAAAGTACATATACATGGATATAT [XGTACX_site3317],8.91 ± 0.54
7,AATATATCAAAAATTGGATAGTTTCTTATAAAAAAT [CACACA_negctrl_site39],8.43 ± 0.46
8,TATTTTGCTCATCCATGTACACATAGATATATTTTA [XGTACX_site8244],8.76 ± 0.42
9,TTCTTTTCAGAAGGAAAGAATTATAACATATCATAA [XGTACX_negctrl_site548],8.16 ± 0.46
10,ATATTATGTGAAGAACGTACAAATTTTTACACTATA [XGTACX_site1485],8.96 ± 0.42
11,TAATATAACAAAAAAATAAAATAAAATAAAAAATAA [CACACA_negctrl_site109],8.54 ± 0.54
12,ACTATTTAAATGCAAAGTACTTTGATAATAAACAAT [XGTACX_site2608],8.85 ± 0.45
13,ATATAATAATATTAAAGTACATGCATATATATTTAT [XGTACX_site7422],8.89 ± 0.3
14,CATAATATCTCTTTGTGTACATATAGTTATTATTAT [XGTACX_site7688],8.96 ± 0.42
15,ATTTTTTAAAAAAACATACACACAAAAAAAAAAAAA [CACACA_site3936],8.73 ± 0.47
16,ATTATTATATATAAAACACACAATTTTGTTTTCACA [CACACA_site3965],8.71 ± 0.55
17,CTGGAGTTAAAAATGTGTACCTAAAAAATTTTGTTC [XGTACX_site5554],8.55 ± 0.49
18,CTTGTATATAAACACACACACACTTTCTTTTTTTAA [CACACA_site8602],9.44 ± 0.23
19,CCCCTTAATTTATTTTGTACATATAATTTTTTTTTT [XGTACX_site3270],9.01 ± 0.27
20,ATTAATCAATATAGGCGTACAAAAAAAATAAATTAT [XGTACX_site1513],8.82 ± 0.47
21,AAAAAAAAAAAAAAAAAAAAAAATATATATATATTT [GTGCAC_negctrl_site502],8.7 ± 0.25
22,GTATTTTTAAATGACACACACATATATAAATATGTA [CACACA_site6880],9.01 ± 0.37
